Data as given in the supplement of paper PMC3334620.
In all, about 33,000 sequences were measured (“E-score (-0.5 to 0.5)”: median about -0.017, highest 2% from about 0.3 on). Some of the results follow.

target: T1, Sut1 (UniProt P53032); assay: PBM E-score (8-mer binding enrichment) (E-score (-0.5 to 0.5)); higher = stronger / more preferred TF binding; most listed sequences are background and not binding sites; settings: protein concentration: 200 nM; construct: GST-full length
T1 sequence: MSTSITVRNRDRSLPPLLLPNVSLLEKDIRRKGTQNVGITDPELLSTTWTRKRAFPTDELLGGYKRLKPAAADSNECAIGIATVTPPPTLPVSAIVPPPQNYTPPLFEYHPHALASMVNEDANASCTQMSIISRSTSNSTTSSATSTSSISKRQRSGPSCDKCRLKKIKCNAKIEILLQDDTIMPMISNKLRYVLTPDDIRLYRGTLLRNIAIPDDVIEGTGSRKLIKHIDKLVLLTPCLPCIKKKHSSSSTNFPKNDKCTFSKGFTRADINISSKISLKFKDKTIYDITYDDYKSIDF
Procedure: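 Universal 'all 10-mer' protein binding microarrays (Agilent AMADID 015681) probed with GST-tagged S. cerevisiae TFs (full-length or DBD) made by in vitro transcription/translation (PURExpress), about 100-200 nM. Bound TF was detected with fluorescent anti-GST. Each ungapped 8-mer (which stands for itself and its reverse complement) is scored by the PBM enrichment score (E-score), a modified Wilcoxon-Mann-Whitney statistic from -0.5 to +0.5, computed with the Universal PBM Analysis Suite. Scale: above 0.35 generally sequence-specific binding.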

Sequence | PBM E-score
GCGATTAA | 0.0789
CGAGATGC | 0.00628
ATCCTTGA | -0.0256
ATATCAGG | -0.00783
AATTTCCG | 0.257
GGGACCCA | -0.183
ACCCTCAA | -0.00848
ATTTCAAA | 0.219
CCTCCGCC | -0.221
GGTGGGAA | -0.254
AATAGCTG | 0.0185
CACGCGCA | -0.141
CAACTCGA | -0.0149
CTATAGTA | 0.215
AGTAGGCG | 0.0779
ACGACTGA | -0.0425
ATTGTCTC | 0.0596
TACTGTAA | 0.175
CGCCATGA | -0.235
TGAAACCA | 0.0773
AGCCTTAT | -0.0244
GACGGACA | 0.266

Sequence | PBM E-score
GGGATCAA | -0.0345
CTCAAGCC | -0.126
CGGTGGAG | -0.00921
CGGCCGAA | 0.134
GAGAGAGC | -0.0633
AGTAGCTA | 0.124
CTATCCAG | -0.0682
GAATGCGA | -0.0837
GTTTCGGA | 0.334
GGTAGCAC | -0.295
AGCATACA | 0.187
ATTATTTC | 0.306
AAGTAATT | 0.264
AGGCCGTG | -0.181
CACAACGC | -0.165
CCTCCCAG | -0.254
AATTGCAA | 0.0746
CCCAGCGC | -0.145
CATGCGCC | -0.176
AACAGGTT | -0.0198
CAATCAGC | 0.0337
AGTTCATG | 0.106

Sequence | PBM E-score
AATTGATG | 0.225
ATGACGTC | 0.00848
AAGGTCTC | -0.0653
ATCTAAAC | 0.00716
GCAACGAA | 0.0239
TTCGCAAA | 0.303
AACCCCTG | -0.314
AGGAGAAT | -0.0881
ACTGCCAA | -0.0403
AGTTGATC | -0.034
AGAATATC | 0.00262
ACGAACGA | 0.0134
GTTTGTGA | 0.122
AGACATGG | -0.0838
AGACGTGA | -0.00663
CCGATAGG | -0.0115
AACTGAGC | -0.0323
ATCAATGG | 0.137
CGTCATGC | -0.233
AGTTAGGG | -0.154
AAACTTAA | 0.262
CCCGTTCC | -0.0399

Sequence | PBM E-score
ATTACGAC | 0.0741
GAGTCCCA | 0.0612
ATCTAATG | 0.068
CCATTAGA | -0.0717
AGAACACC | -0.107
CTACATTA | 0.0331
CACAAACA | 0.139
ACACAAGA | 0.0649
AATCTTCC | 0.0113
GAGATTCC | 0.0713
AGAAGTCT | -0.0104
ATGTTAGG | -0.0213
CCTTCAGA | -0.0889
CCGGACGA | 0.111
CACACGCG | -0.0971
CTCGAATC | -0.0965
CCCGGGCA | -0.229
AGACCGGG | 0.0904
ACGCAAGG | -0.216
CATGTCCG | 0.382
